Our source for the binding signal values is PMC9911399, “Two distinct binding modes provide the RNA-binding protein RbFox with extraordinary sequence specificity”.

The chains are these.
B1: CUUCUAC (DNA:RNA)
RNA: GGGAGACCGGAAUUCAGAUUGUCCCUUCUACUUAAAUCCCGUCGUAGCCACCA
DNA 1: CAATCTGAATTCCGGTCTCCC
DNA 2: TGGTGGCTACGACGGGATT
B2: CACAAGG (DNA:RNA)
RNA: B1 RNA with U26A, U27C, C28A, U29A, A30G, C31G
DNA 1: CAATCTGAATTCCGGTCTCCC
DNA 2: TGGTGGCTACGACGGGATT
B3: GGAGGAA (DNA:RNA)
RNA: B1 RNA with C25G, U26G, U27A, C28G, U29G, C31A
DNA 1: CAATCTGAATTCCGGTCTCCC
DNA 2: TGGTGGCTACGACGGGATT
B4: AGUGUUA (DNA:RNA)
RNA: B1 RNA with C25A, U26G, C28G, A30U, C31A
DNA 1: CAATCTGAATTCCGGTCTCCC
DNA 2: TGGTGGCTACGACGGGATT
B5: UGCGACG (DNA:RNA)
RNA: GGGAGACCGGAAUUCAGAUUGUCCUGCGACGUUAAAUCCCGUCGUAGCCACCA
DNA 1: CAATCTGAATTCCGGTCTCCC
DNA 2: TGGTGGCTACGACGGGATT
B6: ACAGUCU (DNA:RNA)
RNA: B5 RNA with U25A, G26C, C27A, A29U, G31U
DNA 1: CAATCTGAATTCCGGTCTCCC
DNA 2: TGGTGGCTACGACGGGATT
B7: GUUUUAU (DNA:RNA)
RNA: B1 RNA with C25G, C28U, C31U
DNA 1: CAATCTGAATTCCGGTCTCCC
DNA 2: TGGTGGCTACGACGGGATT
B8: GAUCUCG (DNA:RNA)
RNA: B1 RNA with C25G, U26A, A30C, C31G
DNA 1: CAATCTGAATTCCGGTCTCCC
DNA 2: TGGTGGCTACGACGGGATT
B9: UAUCUAU (DNA:RNA)
RNA: B1 RNA with C25U, U26A, C31U
DNA 1: CAATCTGAATTCCGGTCTCCC
DNA 2: TGGTGGCTACGACGGGATT
B10: CCCACUU (DNA:RNA)
RNA: B1 RNA with U26C, U27C, C28A, U29C, A30U, C31U
DNA 1: CAATCTGAATTCCGGTCTCCC
DNA 2: TGGTGGCTACGACGGGATT
B11: GGAAGGG (DNA:RNA)
RNA: B5 RNA with U25G, C27A, G28A, A29G, C30G
DNA 1: CAATCTGAATTCCGGTCTCCC
DNA 2: TGGTGGCTACGACGGGATT
B12: GCGUUUU (DNA:RNA)
RNA: B1 RNA with C25G, U26C, U27G, C28U, A30U, C31U
DNA 1: CAATCTGAATTCCGGTCTCCC
DNA 2: TGGTGGCTACGACGGGATT
B13: GAGGUGU (DNA:RNA)
RNA: B1 RNA with C25G, U26A, U27G, C28G, A30G, C31U
DNA 1: CAATCTGAATTCCGGTCTCCC
DNA 2: TGGTGGCTACGACGGGATT
B14: UUUGAAC (DNA:RNA)
RNA: B1 RNA with C25U, C28G, U29A
DNA 1: CAATCTGAATTCCGGTCTCCC
DNA 2: TGGTGGCTACGACGGGATT
B15: ACUGACU (DNA:RNA)
RNA: B5 RNA with U25A, G26C, C27U, G31U
DNA 1: CAATCTGAATTCCGGTCTCCC
DNA 2: TGGTGGCTACGACGGGATT
B16: CGACCCA (DNA:RNA)
RNA: B1 RNA with U26G, U27A, U29C, A30C, C31A
DNA 1: CAATCTGAATTCCGGTCTCCC
DNA 2: TGGTGGCTACGACGGGATT
B17: AUGAGCC (DNA:RNA)
RNA: B1 RNA with C25A, U27G, C28A, U29G, A30C
DNA 1: CAATCTGAATTCCGGTCTCCC
DNA 2: TGGTGGCTACGACGGGATT
B18: UGAAAGC (DNA:RNA)
RNA: B5 RNA with C27A, G28A, C30G, G31C
DNA 1: CAATCTGAATTCCGGTCTCCC
DNA 2: TGGTGGCTACGACGGGATT
B19: CCAGUAU (DNA:RNA)
RNA: B1 RNA with U26C, U27A, C28G, C31U
DNA 1: CAATCTGAATTCCGGTCTCCC
DNA 2: TGGTGGCTACGACGGGATT
B20: AGUUUCG (DNA:RNA)
RNA: B5 RNA with U25A, C27U, G28U, A29U
DNA 1: CAATCTGAATTCCGGTCTCCC
DNA 2: TGGTGGCTACGACGGGATT
B21: GCAGUUU (DNA:RNA)
RNA: B1 RNA with C25G, U26C, U27A, C28G, A30U, C31U
DNA 1: CAATCTGAATTCCGGTCTCCC
DNA 2: TGGTGGCTACGACGGGATT
B22: AAGGGUA (DNA:RNA)
RNA: B5 RNA with U25A, G26A, C27G, A29G, C30U, G31A
DNA 1: CAATCTGAATTCCGGTCTCCC
DNA 2: TGGTGGCTACGACGGGATT
B23: GCUUCAA (DNA:RNA)
RNA: B1 RNA with C25G, U26C, C28U, U29C, C31A
DNA 1: CAATCTGAATTCCGGTCTCCC
DNA 2: TGGTGGCTACGACGGGATT
B24: UACGAUG (DNA:RNA)
RNA: B5 RNA with G26A, C30U
DNA 1: CAATCTGAATTCCGGTCTCCC
DNA 2: TGGTGGCTACGACGGGATT
B25: GUAUAGA (DNA:RNA)
RNA: B1 RNA with C25G, U27A, C28U, U29A, A30G, C31A
DNA 1: CAATCTGAATTCCGGTCTCCC
DNA 2: TGGTGGCTACGACGGGATT
B26: AUGGUCG (DNA:RNA)
RNA: B5 RNA with U25A, G26U, C27G, A29U
DNA 1: CAATCTGAATTCCGGTCTCCC
DNA 2: TGGTGGCTACGACGGGATT
B27: AUACCAU (DNA:RNA)
RNA: B1 RNA with C25A, U27A, U29C, C31U
DNA 1: CAATCTGAATTCCGGTCTCCC
DNA 2: TGGTGGCTACGACGGGATT
B28: AAAUGAG (DNA:RNA)
RNA: B1 RNA with C25A, U26A, U27A, C28U, U29G, C31G
DNA 1: CAATCTGAATTCCGGTCTCCC
DNA 2: TGGTGGCTACGACGGGATT
B29: ACAUACU (DNA:RNA)
RNA: B5 RNA with U25A, G26C, C27A, G28U, G31U
DNA 1: CAATCTGAATTCCGGTCTCCC
DNA 2: TGGTGGCTACGACGGGATT
B30: UGCCCUU (DNA:RNA)
RNA: B5 RNA with G28C, A29C, C30U, G31U
DNA 1: CAATCTGAATTCCGGTCTCCC
DNA 2: TGGTGGCTACGACGGGATT
B31: AUGUUAU (DNA:RNA)
RNA: B1 RNA with C25A, U27G, C28U, C31U
DNA 1: CAATCTGAATTCCGGTCTCCC
DNA 2: TGGTGGCTACGACGGGATT

Numbering of substitutions follows the chain as printed; changes in the protein carry UniProt numbers. The list shows a part of the results.

The target of the assay is T1, RBFOX1 RRM (Homo sapiens, UniProt Q9NWB1 109-208).
T1 sequence: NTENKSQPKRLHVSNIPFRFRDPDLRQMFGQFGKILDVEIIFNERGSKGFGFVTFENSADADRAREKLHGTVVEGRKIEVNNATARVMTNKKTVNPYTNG
As to the kind of experiment: EMSA; HiTS-Eq, 1 nM pool, 10 min; buffer printed only for the single-RNA assays: 10 mM Tris pH 7.5, 150 mM NaCl, 3.4 mM EDTA, 0.001% NP-40, 30 C. The following applies: tags: His6 N-terminal (pET28a); label: 5' 32P. Summed up: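 These values rest on relative association constants, computed from read-count changes of each RNA species versus the control reaction and normalised to the cognate motif. Reads came from free RNA recovered by 8% native PAGE after purified RbFox RRM (wild type or mutant) at increasing concentrations was equilibrated for 10 min in 50 µL with 1 nM of a 5′-radiolabelled pool with 7 randomized nucleotides and DNA-annealed flanks.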
With B1, the binding signal is 0.00182 KA relative to UGCAUGU.

Consider B2, for which the binding signal is 0.00364 KA relative to UGCAUGU.

Regarding B3, the binding signal was 0.0141 KA relative to UGCAUGU.

With B4, the binding signal was 0.00766 KA relative to UGCAUGU.

As to B5, the binding signal was 0.0138 KA relative to UGCAUGU.

With B6, the binding signal is 0.00331 KA relative to UGCAUGU.

Turning to B7, the binding signal was 0.0114 KA relative to UGCAUGU.

Turning to B8, the binding signal is 0.00674 KA relative to UGCAUGU.

On to B9, for which the binding signal is 0.00571 KA relative to UGCAUGU.

Turning to B10, the binding signal was 0.00255 KA relative to UGCAUGU.

Consider B11, for which the binding signal is 0.00767 KA relative to UGCAUGU.

As for B12, the binding signal is 0.0112 KA relative to UGCAUGU.

Take B13: the binding signal was 0.021 KA relative to UGCAUGU.

In the case of B14, the binding signal was 0.0127 KA relative to UGCAUGU.

B15: the binding signal was 0.00677 KA relative to UGCAUGU.

As to B16, the binding signal was 0.00088 KA relative to UGCAUGU.

B17: the binding signal was 0.00751 KA relative to UGCAUGU.

For B18, the binding signal was 0.0119 KA relative to UGCAUGU.

For the molecule B19, the binding signal was 0.00253 KA relative to UGCAUGU.

On to B20, for which the binding signal is 0.011 KA relative to UGCAUGU.

Take B21: the binding signal was 0.0123 KA relative to UGCAUGU.

As to B22, the binding signal is 0.00894 KA relative to UGCAUGU.

For the molecule B23, the binding signal was 0.0131 KA relative to UGCAUGU.

As to B24, the binding signal was 0.0142 KA relative to UGCAUGU.

Take B25: the binding signal was 0.0138 KA relative to UGCAUGU.

For B26, the binding signal is 0.02 KA relative to UGCAUGU.

For B27, the binding signal is 0.000497 KA relative to UGCAUGU.

As for B28, the binding signal was 0.00871 KA relative to UGCAUGU.

Regarding B29, the binding signal was 0.001 KA relative to UGCAUGU.

On to B30, for which the binding signal is 0.00933 KA relative to UGCAUGU.

For B31, the binding signal was 0.00626 KA relative to UGCAUGU.
